PubChem BioAssay AID651820 (National Center for Advancing Translational Sciences (NCATS), 2012)
The campaign covered roughly 340,000 compounds. About 12,000 (3.5%) were called active. The inconclusive results got no clear call from the source; some entries with a clear call stand among them for comparison. Calls come from the whole dose curve; as a rule, active = well fitted inhibition curve with a large enough effect; inconclusive = small, poorly fitted or top-dose-only effect, or another doubt; inactive = no such curve, though single readings can be large or run the other way. No potency is given beside an inconclusive call; the fits are too rough.

assay: qHTS Assay for Inhibitors of Hepatitis C Virus (HCV); conditions: Huh7.5.1 HCVcc-Cre (HCVcc is cell-culture hepatitis C virus) infection, luciferase reporter, 44 h; series mostly up to 41.8 µM
Outline: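 Whole-lifecycle infectious HCVcc-Cre system; cells 1,000/well, compound then virus (~0.5 moi) added 4 h after plating, 44 h culture. Luciferase read 15 sec following 15 min substrate incubation, room temp.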
Potency is the fitted concentration of half-maximal effect; tags give direction and shape of the fitted curve.

Row | SMILES | Potency
1 | CCOC(=O)Cc1csc(SCC(=O)Nc2cc(C)ccc2OC)n1 | inconclusive [inhibitor, single point]
2 | Cc1cccc(NC(=O)CCCc2ccccc2)c1C | inactive
3 | CCCc1cc(C(=O)NCc2cccnc2)no1 | inactive
4 | Cc1c(C(=O)NCCc2ccccc2)oc2ccc(S(=O)(=O)N3CCOCC3)cc12 | inconclusive [inhibitor, partial curve, poor fit]
5 | O=C(Cn1c(=O)oc2cc(S(=O)(=O)N3CCCC3)ccc21)N1CCCC1 | inactive
6 | CCOC(=O)c1ccc(NS(=O)(=O)c2c(N)n(C)c(=O)n(C)c2=O)cc1 | active: 10 µM
7 | O=C(Nc1cccc(C(F)(F)F)c1)c1cc2c(=O)c3ccccc3oc2nc1C(F)(F)F | inconclusive [inhibitor, full curve]
8 | CC(C)CCN1CCN(C2CCN(c3ccc4c(c3)OCO4)CC2)CC1CCO (stereo not drawn) | inactive
9 | COc1ccc(S(=O)(=O)NCc2ccc(C(=O)N3CCc4ccccc4C3)cc2)cc1 | inconclusive [inhibitor, single point]
10 | CCSc1nc(N)c2c3c(sc2n1)CN(C)CC3 | inactive
11 | CCCc1cc(=O)[nH]c(SCC(=O)Nc2sc3c(c2C#N)CCC(C)C3)n1 (stereo not drawn) | inactive
12 | COC(=O)c1ccc(-n2c(C)cc(C(=O)CSc3ccc(NC(C)=O)cc3)c2C)cc1 | inactive
13 | Cc1ccc(C(=O)COC(=O)CCc2nc3ccccc3[nH]c2=O)cc1C | inactive
14 | Cc1ccccc1NC(=S)N(Cc1ccco1)C(C)c1cccs1 (stereo not drawn) | inconclusive [inhibitor, partial curve, poor fit]
15 | S=c1[nH]nc(Cn2cnc3ccccc32)n1-c1ccccc1 | inactive
16 | O=c1c(Cl)c(NCCCO)cnn1-c1nc2ccccc2[nH]1 | active: 10 µM
17 | CCn1cc(C(=O)OCC(=O)c2cc(C)n(-c3ccccc3F)c2C)c(=O)c2ccc(C)nc21 | inconclusive [inhibitor, single point]
18 | OC1(c2ccc(Br)cc2)CCNCC1 | inconclusive [inhibitor, single point]
19 | Cc1nccn1CC(O)Cn1c2ccccc2c2ccccc21 (stereo not drawn) | inconclusive [inhibitor, single point]
20 | CC(C)NC(=O)c1ccc(COc2cc(Cl)ccc2Cl)o1 | active: 11.2 µM
21 | CCOC(=O)c1cc2c(nc1C)-c1cc(Cl)cc(Cl)c1OC2O (stereo not drawn) | inactive
22 | O=C(CC1(O)C(=O)N(CCc2ccccc2)c2ccccc21)c1ccco1 (stereo not drawn) | inactive
23 | CCOC(=O)c1sc(NC(=O)CSc2nnc(Cc3ccccc3)o2)c(C(=O)OCC)c1C | active: 6.31 µM
